Results from the supplement of paper PMC4967469.

Assays:
Test in all cases: Viability of human cancer cell lines after 72 h of drug (GDSC screen)
[1] = compound: CC(=O)O[C@@]12CO[C@@H]1C[C@H](O)[C@@]1(C)C(=O)[C@H](O)C3=C(C)[C@@H](OC(=O)[C@H](O)[C@@H](NC(=O)OC(C)(C)C)c4ccccc4)C[C@@](O)([C@@H](OC(=O)c4ccccc4)[C@H]21)C3(C)C [Docetaxel]; conditions: top dose 0.0125 µM
Description: (§1)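 Human cancer cell lines in 384-well plates, medium with 10% serum, drug for 72 h over a 256-fold dose range (nine 2-fold or five 4-fold steps up to the top dose). Adherent lines were fixed and stained with the nucleic acid dye Syto60, suspension lines read with resazurin; signal relative to control wells, capped at 0 and 100%. One two-parameter sigmoid per drug and line, fitted in a mixed model over all curves with the slope shared within a line.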

[2] = compound: CC1(C)CNc2cc(NC(=O)c3cccnc3NCc3ccncc3)ccc21 [AMG-706]; conditions: top dose 2 µM; top dose inferred
Description: as §1

[3] = compound: CCOc1nc(NC(=O)Cc2cc(OC)ccc2OC)cc(N)c1C#N [JNK Inhibitor VIII]; conditions: top dose 10 µM; top dose inferred
Description: as §1

[4] = compound: CN1CCN(c2ccc([N+](=O)[O-])c3no[n+]([O-])c23)CC1 [NSC-207895]; conditions: top dose 20 µM; top dose inferred
Description: as §1

[5] = compound: COC(=O)[C@H](CCSC)NC(=O)c1ccc(NC[C@@H](N)CS)cc1-c1ccccc1 [FTI-277]; conditions: top dose 1.024 µM; top dose inferred
Description: as §1

[6] = compound: COCC[n+]1c2c(n(Cc3cnccn3)c1C)C(=O)c1ccccc1C2=O [YM155]; conditions: top dose 5.12 µM
Description: as §1

[7] = compound: C[C@]1(O)C[C@@H](c2nc(-c3ccc4ccc(-c5ccccc5)nc4c3)c3c(N)nccn32)C1 [OSI-906]; conditions: top dose 2.56 µM; top dose inferred
Description: as §1

[8] = compound: Cc1ccc(C(=O)N(CCCN)[C@@H](c2nc3cc(Cl)ccc3c(=O)n2Cc2ccccc2)C(C)C)cc1 [SB-715992]; conditions: top dose 0.128 µM; top dose inferred
Description: as §1

[9] = compound: Cc1sc2c(c1C)C(c1ccc(Cl)cc1)=N[C@@H](CC(=O)OC(C)(C)C)c1nnc(C)n1-2 [JQ1]
Description: as §1

[10] = compound: O=C(/C=C/c1cccc(S(=O)(=O)Nc2ccccc2)c1)NO [Belinostat]; conditions: top dose 20 µM; top dose inferred
Description: as §1

[11] = compound: c1ccc2c(CCNc3ccc(Nc4ccncc4)cc3)c[nH]c2c1 [JNJ-26854165]; conditions: top dose 10 µM
Description: as §1

[12] = top dose 1 µM, screen: GDSC drug entry 1218, top dose inferred
[13] = top dose 2.56 µM, screen: GDSC drug entry 163

Row | Cell Line | AUC [1] | IC50 [1] [nM] | AUC [2] | IC50 [2] [nM] | AUC [3] | IC50 [3] [nM] | AUC [4] | IC50 [4] [nM] | AUC [5] | IC50 [5] [nM] | AUC [6] | IC50 [6] [nM] | AUC [7] | IC50 [7] [nM] | AUC [8] | IC50 [8] [nM] | AUC [9, 12] | IC50 [9, 12] [nM] | AUC [9, 13] | IC50 [9, 13] [nM] | AUC [10] | IC50 [10] [nM] | AUC [11] | IC50 [11] [nM]
1 | TOV-21G (ovary, adherent) | 0.585 | 1.37 | 0.979 | > 2000 | 0.955 | > 10000 | 0.968 | > 20000 | 0.981 | > 1020 | 0.048 | < 20 | 0.985 | > 2560 | 0.578 | 13.3 | 0.983 | > 1000 | 0.978 | > 2560 | 0.683 | 4280 | 0.899 | > 10000
2 | TOV-112D (ovary, adherent) | 0.684 | 2.57 | 0.984 | > 2000 | 0.974 | > 10000 | 0.913 | > 20000 | 0.943 | > 1020 | 0.034 | < 20 | 0.941 | > 2560 | 0.361 | 3.3 | 0.934 | > 1000 | 0.547 | 215 | 0.364 | 525 | 0.857 | 8240
3 | TT2609-C02 (thyroid, adherent) | 0.682 | 2.62 | 0.959 | > 2000 | 0.976 | > 10000 | 0.719 | 5480 | 0.97 | > 1020 | 0.029 | < 20 | 0.855 | 2260 | 0.776 | 54.6 | 0.985 | > 1000 | 0.568 | 249 | 0.37 | 533 | 0.835 | 7230
4 | TT (thyroid, adherent) | 0.941 | > 12.5 | 0.894 | > 2000 | 0.974 | > 10000 | 0.979 | > 20000 | 0.957 | > 1020 | 0.172 | 20.4 | 0.981 | > 2560 | 0.983 | > 128 | 0.98 | > 1000 |  |  | 0.958 | > 20000 | 0.84 | > 10000
5 | TYK-nu (ovary, adherent) | 0.709 | 3.2 | 0.975 | > 2000 | 0.963 | > 10000 | 0.952 | > 20000 | 0.985 | > 1020 | 0.045 | < 20 | 0.98 | > 2560 | 0.969 | > 128 | 0.971 | > 1000 | 0.85 | 2160 | 0.398 | 641 | 0.808 | 5610
6 | U-118-MG (glioma, adherent) | 0.907 | > 12.5 | 0.969 | > 2000 | 0.983 | > 10000 | 0.986 | > 20000 | 0.97 | > 1020 | 0.6 | 630 | 0.975 | > 2560 | 0.983 | > 128 | 0.926 | > 1000 | 0.856 | > 2560 | 0.642 | 3290 | 0.701 | 2530
7 | UACC-62 (melanoma, adherent) | 0.764 | 4.49 | 0.982 | > 2000 | 0.977 | > 10000 | 0.987 | > 20000 | 0.95 | > 1020 | 0.22 | 49.2 | 0.969 | > 2560 | 0.955 | > 128 | 0.962 | > 1000 | 0.774 | 996 | 0.613 | 2540 | 0.913 | > 10000
8 | UACC-893 (breast, adherent) | 0.904 | > 12.5 | 0.976 | > 2000 | 0.973 | > 10000 | 0.974 | > 20000 | 0.962 | > 1020 | 0.455 | 231 | 0.977 | > 2560 | 0.874 | > 128 | 0.98 | > 1000 | 0.843 | > 2560 | 0.67 | 4390 | 0.833 | 9800
9 | VMRC-RCZ (kidney, adherent) | 0.683 | 2.78 | 0.984 | > 2000 | 0.984 | > 10000 | 0.87 | > 20000 | 0.98 | > 1020 | 0.077 | < 20 | 0.968 | > 2560 | 0.82 | 89.8 | 0.972 | > 1000 | 0.563 | 246 | 0.44 | 836 | 0.904 | > 10000
10 | WM35 (melanoma, adherent) | 0.459 | 0.602 | 0.985 | > 2000 | 0.979 | > 10000 | 0.91 | > 20000 | 0.958 | > 1020 | 0.098 | < 20 | 0.817 | 1440 | 0.593 | 14.4 | 0.98 | > 1000 | 0.475 | 137 | 0.307 | 357 | 0.877 | > 10000
11 | WM793B (melanoma, adherent) | 0.753 | 4.57 | 0.984 | > 2000 | 0.983 | > 10000 | 0.981 | > 20000 | 0.895 | > 1020 | 0.107 | < 20 | 0.968 | > 2560 | 0.901 | > 128 | 0.982 | > 1000 | 0.523 | 187 | 0.549 | 1730 | 0.851 | 8960

A lower IC50 marks a more sensitive line; fits outside the tested doses are given as limits. AUC sums up the same curve from the lowest dose to the 256-fold higher top dose; values near 1 show little effect. For some of these results: An inferred top dose is not printed in the source and was worked back from the curve model. For some of these results: Where an entry number is given, a second screen of the drug exists; the two often differ.
